# Measurements taken from paper PMC4336329 (PLoS ONE, 2015).
# About 2,200 (0.71%) of roughly 310,000 compounds showed an effect of 50% or more. Effects have a minus sign here. The list shows a part of the results.
# Molecular target: human ether-à-go-go-related gene (hERG) potassium channel (human, UniProt Q12809)
# Experiment: primary screen, population patch clamp on CHO cells stably expressing hERG
# Sequence of human ether-à-go-go-related gene (hERG) potassium channel (Q12809 whole entry, looked up): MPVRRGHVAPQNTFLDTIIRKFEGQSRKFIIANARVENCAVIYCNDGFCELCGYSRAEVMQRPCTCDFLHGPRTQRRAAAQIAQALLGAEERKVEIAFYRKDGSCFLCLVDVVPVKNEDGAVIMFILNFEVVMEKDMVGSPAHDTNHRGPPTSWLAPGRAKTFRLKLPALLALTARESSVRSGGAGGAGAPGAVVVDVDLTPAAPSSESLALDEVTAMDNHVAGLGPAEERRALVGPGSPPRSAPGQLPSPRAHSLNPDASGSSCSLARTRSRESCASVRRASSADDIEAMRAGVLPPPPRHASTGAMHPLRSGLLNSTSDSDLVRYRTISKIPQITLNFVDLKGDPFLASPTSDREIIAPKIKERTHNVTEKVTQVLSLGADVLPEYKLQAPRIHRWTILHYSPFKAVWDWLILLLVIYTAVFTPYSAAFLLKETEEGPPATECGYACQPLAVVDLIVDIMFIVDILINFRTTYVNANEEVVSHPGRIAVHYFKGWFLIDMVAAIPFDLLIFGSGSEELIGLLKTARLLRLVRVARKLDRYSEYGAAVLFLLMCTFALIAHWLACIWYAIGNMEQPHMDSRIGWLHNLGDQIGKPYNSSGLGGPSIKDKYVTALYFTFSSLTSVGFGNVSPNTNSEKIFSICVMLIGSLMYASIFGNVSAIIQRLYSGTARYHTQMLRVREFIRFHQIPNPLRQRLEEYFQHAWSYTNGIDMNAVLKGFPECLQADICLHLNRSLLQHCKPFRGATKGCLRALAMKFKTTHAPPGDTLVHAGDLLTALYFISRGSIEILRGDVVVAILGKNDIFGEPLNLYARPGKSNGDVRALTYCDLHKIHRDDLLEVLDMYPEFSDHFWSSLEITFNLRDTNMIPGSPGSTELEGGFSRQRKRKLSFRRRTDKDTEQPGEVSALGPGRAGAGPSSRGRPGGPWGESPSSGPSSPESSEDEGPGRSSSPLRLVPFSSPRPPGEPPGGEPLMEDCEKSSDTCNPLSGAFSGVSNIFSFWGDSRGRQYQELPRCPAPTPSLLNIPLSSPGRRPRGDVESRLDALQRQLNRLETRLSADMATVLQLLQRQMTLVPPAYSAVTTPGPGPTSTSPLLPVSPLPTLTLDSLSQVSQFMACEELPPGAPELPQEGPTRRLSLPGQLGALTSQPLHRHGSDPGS
row,SMILES,"hERG current change (%, negative = inhibition) at 1uM [%]"
1,COCC(=O)N1CCN(c2ccc([N+](=O)[O-])cc2)CC1,-31.5
2,Cc1ccc(CS(=O)(=O)Cc2ccc(C(=O)NC3CCCC3)o2)cc1,17.2
3,Cn1cccc1/C=C1/C(=O)NC(=O)N(Cc2ccccc2)C1=O,12.3
4,Cl.N=c1sccn1CC(=O)N1N=C(c2ccc(Cl)cc2)CC1c1ccco1 (centres unmarked),-47.2
5,COc1ccc(Cl)cc1NC(=O)c1nc2nc(C)cc(C(F)F)n2n1,8.56
6,O=C(C1CCN(S(=O)(=O)Cc2ccccc2)CC1)N1CCCc2ccccc21,15.3
7,Cc1cccc(N2CCN(S(=O)(=O)c3ccc(-c4cc(C)no4)s3)CC2C)c1 (centres unmarked),18.6
8,C=CCNC(=O)CCCCCNS(=O)(=O)c1ccc(OC)cc1,5.79
9,O=C(NN1CCOCC1)c1ccccc1F,20.3
10,Cc1c(C(=O)NC(=S)Nc2ccc(NC(=O)c3cccs3)cc2)oc2ccccc12,1.04
11,Cc1ccccc1OC1C(=O)N(Cc2ccc3c(c2)OCO3)C1c1sccc1C (centres unmarked),11.1
12,COc1ccc(OC)c(/C=C2\N=C(c3ccccc3)OC2=O)c1,13.9
13,C=CCN(CC=C)S(=O)(=O)c1ccc(C(=O)Nc2nnc(CSC)o2)cc1,-0.491
14,Cc1c(C(=O)/C=C/N(C)C)nnn1-c1ccc(Cl)cc1Cl,16.7
15,N#CCCn1cc(/C=N/O)c(-c2ccc(Cl)cc2)n1,-3.94
16,Cc1cc(=O)oc2c3c(cc(OCC(=O)N4CCC(C(=O)O)CC4)c12)OC(C)(C)CC3,8.4
17,COc1ccc(CC(=O)N2CCc3cc(OC)c(OC)cc3C2O)cc1OC (centres unmarked),13.8
18,Cc1ccc(-n2cc(C(=O)O)c(=O)cc2C)c(C)c1,12.7
19,CCN1CCN(Cc2ccc(NC(=O)c3ccc(C)c(NC(=O)c4cc(-c5ccc(Br)cc5)n[nH]4)c3)cc2C(F)(F)F)CC1,9.82
20,O=C(Cc1cccs1)NCc1ccc2c(c1)OCO2,5.02
21,Cc1ccccc1NC(=S)NCCSc1ccc(Cl)cc1,6.07
22,O=C(N/N=C/c1ccc2c(c1)OCO2)C(=O)Nc1ccccc1Cl,8.95
23,COc1ccc(CCNC(=O)C2CCCN(c3ncccn3)C2)cc1 (centres unmarked),1.11

row,SMILES,"hERG current change (%, negative = inhibition) at 1uM [%]"
1,CCCC(c1nnnn1Cc1cccs1)N1CCN(C)CC1.Cl (centres unmarked),18.8
2,COC(=O)C1=C(c2ccc(Cl)c(C(F)(F)F)c2)C[C@@H]2CC[C@H]1N2C(=O)NCCOc1ccccc1,13.2
3,N#Cc1nc(-c2ccc(OCc3ccccc3Cl)cc2)oc1NCCCn1ccnc1,-1.32
4,CCOC(=O)/C(C#N)=C/Nc1cc(F)ccc1C,19.7
5,COc1ccc(Br)cc1S(=O)(=O)Nc1ncccc1C,22.7
6,Cc1ccc(C(=O)N/C(=C\c2cn(S(=O)(=O)N(C)C)c3ccccc23)C(=O)NCCCn2ccnc2)cc1,10.1
7,O=C(c1ccc2c(c1)OCCCO2)c1cccs1,4.46
8,c1ccc(CCc2ccccc2-c2nc(-c3ccccn3)no2)cc1,4.13
9,Nc1nc(SCC(=O)N2CCCC2)[nH]c(=O)c1NC(=O)c1cccs1,7.18
10,Cc1ccn2c(c1)nc(=S)n2C(=O)c1ccccc1,-1.09
11,COc1ccccc1CCc1nnc(CCC(=O)NCC2CCCO2)o1 (centres unmarked),11.6
12,O=C(CSc1ncn(-c2ccccc2)n1)Nc1ccc2c(c1)OCO2,4.46
13,COC(=O)C1=C(C)N(C)C(=O)NC1c1ccc([N+](=O)[O-])o1 (centres unmarked),9.15
14,O=C(Nc1ccc(N2CCOCC2)c(Cl)c1)c1cccnc1Cl,0.0718
15,COc1ccc(OC)c(NC(=S)NCCCN2CCOCC2)c1,2.82
16,COc1ccc(N2CCN(C(=O)Nc3ccc(S(=O)(=O)N(C)C)cc3)CC2)cc1,8.83
17,COc1ccc(C)cc1S(=O)(=O)N1CCC2(CC1)OCCN2S(=O)(=O)c1cccs1,4.3
18,c1ccc(CCn2nnnc2CN2CCC(n3nnc4ccccc43)CC2)cc1,-18.4
19,O=C(CCC(=O)N1CCOc2ccccc21)NCCN1CCOCC1,7.35
20,O=C(NC1CCCCCC1)C1CCN(S(=O)(=O)c2ccc(F)cc2)CC1,7.17
21,CCn1c(CSc2nc3ccccc3s2)nnc1SCC(=O)OC(C)(C)C,-15.4
22,CC(C)Cc1nc2sc3c(c2c(=O)n1N)CC(C)(C)OC3,4.88
23,CCCCNC(=O)CCNS(=O)(=O)c1ccc(Br)cc1,-7.26

row,SMILES,"hERG current change (%, negative = inhibition) at 1uM [%]"
1,O=[N+]([O-])c1ccc(C[n+]2cc(-c3ccc(Cl)c(Cl)c3)n3c2CCCCC3)cc1.[Br-],0.678
2,NC(=O)c1ccsc1NC(=O)COC(=O)c1ccc(Cl)c(N)c1,4.13
3,Cc1nc2nc(-c3ccc(Cl)cc3)[nH]n2c(=O)c1Cc1ccccc1,9.81
4,O=C(O)c1ccccc1NC(=S)NC(=O)c1sc2ccccc2c1Cl,16.1
5,CCN(C(=O)COc1ncnc2scc(-c3ccc(F)cc3)c12)C1CCS(=O)(=O)C1 (centres unmarked),8.85
6,CC(C)Sc1nc2sccc2c(=O)n1-c1ccccc1,12.7
7,CC(C)(/C=N/O)/[N+]([O-])=C/C=[N+](\[O-])C(C)(C)/C=N/O,5.25
8,COC1CCCN(Cc2nc(Cc3ccccc3F)no2)C1 (centres unmarked),10.9
9,CCOC(=O)C1CCN(C(=O)c2cc(C(C)(C)C)nn2Cc2ccccc2)CC1,6.03
10,CN1CCN(C(=S)NC(=O)c2ccc(S(=O)(=O)N3CCOCC3)cc2)CC1,26.9
11,CCOC(=O)c1cc(CC)sc1NC(=O)Cc1ccccc1,13.9
12,Cc1ccc(S(=O)(=O)Nn2c(C)ccc2C)cc1,5.59
13,C/C(CC(=O)Nc1ccc2c(c1)OCO2)=N\NC(=O)C(c1ccccc1)c1ccccc1,6.43
14,O=C(NC(=S)NCc1ccc(F)cc1)c1ccccc1,1.5
15,O=C(CN1CCN(c2ccc(F)cc2)CC1)Nc1ccccc1Br,10.4
16,O=C(c1cc(-c2ccc3c(c2)OCO3)on1)N1CCCCC1,9.25
17,Cc1cc(C(=O)NCc2cccs2)n(-c2ccccc2)n1,-4.45
18,Cc1cc(NC(=O)CCC(=O)N(Cc2ccco2)C(C(=O)NC2CCCC2)c2ccc(F)cc2)no1 (centres unmarked),11.7
19,CCOC(=O)COc1ccsc1C(=O)OC,6.87
20,OCCC1CN(Cc2cccn2-c2cccnc2)CCN1Cc1ccc(F)cc1 (centres unmarked),-21.4
21,COc1ccc(/C=C2\CCc3ccccc3C2=O)cc1CN1CCOCC1,7.81
22,COc1ccc(CN(CC(=O)NCc2ccco2)C(=O)CCC(=O)Nc2nccs2)cc1,13.5
23,Cn1c(=O)n(CC(=O)NCC2CCCO2)c(=O)c2c3c(sc21)COC(C)(C)C3 (centres unmarked),8.58

row,SMILES,"hERG current change (%, negative = inhibition) at 1uM [%]"
1,CCN(C(=O)CSc1nc2ccccc2c(=O)n1-c1cccc(C)c1)C1CCS(=O)(=O)C1 (centres unmarked),7.41
2,Cc1cc(NC(=O)CSc2nnnn2-c2ccc(F)cc2)no1,17.4
3,Cc1ccc(C(=O)NCC(=O)NCc2cc(=O)n(C)c(=O)n2C)cc1,22.8
4,COc1ccc(CNC(=O)c2cc(-n3cnnc3)ccc2Cl)cc1,-5.99
5,C=CCN1CCN(C(c2ccccc2)c2nnnn2CCC(C)C)CC1.Cl (centres unmarked),-4.18
6,Cc1ccc(N(CC(=O)N/N=C/c2ccc(OCC(N)=O)cc2)S(C)(=O)=O)cc1Cl,10.5
7,NC(=O)/C(=C/c1cccnc1)NC(=O)c1ccccc1,7.35
8,Cc1ccc2nc(-c3ccc(SCC(=O)Nc4nnc(C)s4)nc3)[nH]c2c1,12.3
9,COc1ccc(CN2CCNC(=O)C2CC(=O)N(C)CC2CCOCC2)c(F)c1 (centres unmarked),13.4
10,Cc1cc(C)n(CC(=O)NC2CCCN(Cc3ccc(Cl)cc3)C2)n1 (centres unmarked),8.85
11,Br.CCN(CC)CCN1Cc2ccccc2C1=N,5.88
12,COc1ccc([C@H]2CC(=O)C=C(c3ccc(CO)cc3)C2)cc1,12.6
13,COc1cc(/C=N/n2nnnc2N)ccc1O,-10.6
14,COC(=O)C(C)Oc1ccc(Oc2nc(Cl)ccc2Cl)cc1 (centres unmarked),9.15
15,CC1(C)c2[nH]c3ccccc3c2C[C@H]2C(=O)N(CCCCCO)CC(=O)N21,12.3
16,CN(C)C=O.CNC(=O)CSc1nc2nc(C)cc(C)n2n1,8.43
17,Cc1ccc(NC(=O)COC(=O)c2ccc(S(=O)(=O)NCc3ccco3)cc2)cc1,7.78
18,O=C(NCCc1c[nH]c2ccccc12)c1ccc2[nH]c(=O)c(=O)[nH]c2c1,12.1
19,Cc1cc(SCc2cccc(C(F)(F)F)c2)nc(=O)[nH]1,9.6
20,O=C(c1ccccc1)c1coc2c1C(=O)c1ccccc1C2=O,3.99
